In PubChem BioAssay AID1347073 (National Center for Advancing Translational Sciences (NCATS), 2019):
About 200 (0.44%) of roughly 45,000 compounds were called active. Roughly 7% stayed inconclusive and do not appear here. Calls come from the whole dose curve; as a rule, active = well fitted activation curve with a large enough effect; inconclusive = small, poorly fitted or top-dose-only effect; inactive = no such curve, though single readings can be large or run the other way. This is one part of the list.

Assay: qHTS of TDP-43 Inhibitors: NCGC Sytravon Library Screen; note: 0% is about no effect; nearly all actives have a fitted effect of over 55% in size
Settings: yeast TDP-43 toxicity rescue, BacTiter-Glo growth, 24 h; series mostly up to 46.1 µM; growth rescue (activation): at the top concentration
In short: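 TDP-43-expressing yeast, pregrown in raffinose, seeded at OD600 0.02 in galactose medium with compound for 24 hr at 30 deg C. Growth read by BacTiter-Glo luminescence, so rescue of toxicity appears as activation.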

Row | Structure (SMILES) | growth rescue (activation)
1 | O=C(N/N=C/C=C\c1ccco1)c1cccs1 | inactive: 6.12%
2 | COc1ccc(/C=N/n2c(C)nc3sc(C)c(C)c3c2=O)cc1OC | inactive: 1.76%
3 | CC1=C(C(=O)OCCOC(C)C)C(c2cccnc2)C2=C(CCCC2=O)N1 (stereo not given) | inactive: 3.83%
4 | O=C1CC(NCc2ccncc2)C(=O)N1c1ccccc1 (stereo not given) | inactive: 13.4%
5 | Cc1cccc(C)c1NC(=O)c1cccc(COc2cc(Cl)ccc2Cl)c1 | inactive: 13.1%
6 | CC1CN(S(=O)(=O)c2cccc(C(F)(F)F)c2)CN1C(=O)N1CCOCC1 (stereo not given) | inactive: 3.26%
7 | O=C(O)c1ccc(Cl)c(S(=O)(=O)N(Cc2ccccc2)c2ccccc2)c1 | inactive: 15.1%
8 | O=Cc1ccc(-c2cccc(C(=O)O)c2)o1 | inactive: 6.65%
9 | COc1ccccc1N(CC(=O)NCCc1ccccc1)C(=O)CCC(=O)Nc1ccccn1 | inactive: 3.14%
10 | Cc1cccc(C)c1Nc1c(-c2ccccc2O)nc2ncccn12 | inactive: 5.23%
11 | Cc1ccccc1CNC(=O)c1ccc2c(c1)N(Cc1ccccc1)CCS2 | inactive: 2.13%
12 | CCOC(=O)C(C)/C(C)=N\Nc1ccc([N+](=O)[O-])cc1[N+](=O)[O-] (stereo not given) | inactive: 31.3%
13 | CCOc1ccc(NC(=O)COC(=O)C2C3CC4OC(=O)C2C4C3)cc1 (stereo not given) | inactive: 2.11%
14 | CC(=O)NNc1nc(-c2ccccc2)cs1 | inactive: 6.03%
15 | CC(=O)c1sc(NC(=O)c2c(F)cccc2F)nc1-c1ccccc1 | inactive: -6.47%
16 | CCC(=O)c1ccc(OCC(=O)NCCc2ccccn2)cc1 | inactive: 18.3%
17 | Cc1cccn2c(=O)c3cc(C(=O)NCC4CCCO4)c(=N)n(C4CCCCC4)c3nc12 (stereo not given) | inactive: -11.9%
18 | COc1cc(/C=N/NC(=O)Cc2cccs2)c([N+](=O)[O-])cc1OC | inactive: -13.3%
19 | COc1ccc(S(=O)(=O)N2CCCN(CC(=O)Nc3ccccc3F)CC2)cc1 | inactive: -24.3%
20 | COc1cccc(OCc2nn3c(=O)c(-c4ccccc4)nnc3s2)c1 | inactive: 9.71%
21 | Cc1ccc(SCC(=O)NNC(=O)CNC(=O)c2ccccc2F)cc1 | inactive: -0.268%
22 | CCCCCCCC(=O)Nc1ccc(C(=O)N/N=C/c2cccc([N+](=O)[O-])c2)cc1 | inactive: 18.6%
23 | Cc1nn(CC(=O)NCc2ccccc2Br)c(=O)c2cc3occc3n12 | inactive: -0.81%
24 | N#C/C(=C\c1ccc(F)cc1)C(=O)NC1CCS(=O)(=O)C1 (stereo not given) | inactive: -2.53%

Row | Structure (SMILES) | growth rescue (activation)
25 | COc1ccc(C)cc1NC(=O)c1ccc(S(=O)(=O)N2CCCCC2)cc1 | inactive: 33.9%
26 | COc1ccc(S(=O)(=O)Nc2ccc(Cl)cn2)cc1 | inactive: 24.7%
27 | COc1ccc2nc(N/C(N)=N/C(=S)Nc3c(C)cccc3C)nc(C)c2c1 | inactive: 19%
28 | CNc1oc(/C=C/c2cc(OC)c(OC)c(OC)c2)nc1C#N | inactive: 26.4%
29 | Nc1ccccc1SCC(=O)Nc1ccc2c(c1)OCCO2 | inactive: 4.64%
30 | COc1ccc(/C=C(\NC(=O)c2ccc([N+](=O)[O-])cc2)C(=O)N2CCOCC2)cc1 | inactive: -8.21%
31 | COC(=O)Cc1ccc(NC(=S)NCc2ccc(S(N)(=O)=O)cc2)cc1 | inactive: 0.402%
32 | COCCN1C[C@@H](CO)O[C@@H](n2cnc3c(N(C)C)ncnc32)C1 | inactive: -11.4%
33 | Cn1c(CN2CCCCC2)nc2cc(NC(=O)c3ccc(Cl)cc3)ccc21 | inactive: 4.87%
34 | Cc1ccc2nc(NC(=O)CS(=O)(=O)Cc3ccccc3)sc2c1 | inactive: 29.6%
35 | CCCOc1ccc(/C=N/NC(=O)C2CC2)c(OCCC)c1 | inactive: 22.7%
36 | COc1cccc(C(=O)NC(=S)N2c3ccccc3CC2C)c1OC (stereo not given) | inactive: 24.2%
37 | Cc1c(NC(=O)CN2CCC(C(N)=O)CC2)cccc1[N+](=O)[O-] | inactive: 0.809%
38 | Cc1cc(C)nc(Nc2nc(=O)c3ccccc3s2)n1 | inactive: 6.97%
39 | C=CCn1c(C)cc(C2=NNC(=Nc3ccc(C)cc3)SC2)c1C | inactive: -3.86%
40 | CCOC(=O)c1[nH]c(C)c(C(=O)N2CCN(c3ccccc3OC)CC2)c1C | inactive: 5.57%
41 | O=C(NCc1cccc(C(F)(F)F)c1)c1csc([C@H]2C[C@H](O)[C@@H](CO)O2)n1 | inactive: -4.23%
42 | COc1ccc(CN2CC(=O)N(c3cccc(Cl)c3)C2=S)cc1OC | inactive: 24.4%
43 | O=C(CSc1nc2ccc(NC(=O)c3ccccc3C(=O)O)cc2s1)Nc1c(Cl)cccc1Cl | inactive: 18.1%
44 | O=c1[nH]c2ccccc2nc1/C=C/c1ccc(O)cc1 | inactive: -5.62%
45 | COc1ccc(NC(=S)Nc2ccc(S(N)(=O)=O)cc2)c(C)c1 | inactive: 0.835%
46 | O=C(CCn1cnnn1)NC1CCCN(Cc2ccccc2F)C1 (stereo not given) | inactive: 8.15%
47 | Cc1ccc(-n2nnc3c(=O)n(CC(N)=O)cnc32)cc1 | inactive: 3.67%
48 | Cc1cccc(N2CC(C(=O)Nc3nc4ccc(S(C)(=O)=O)cc4s3)CC2=O)c1C (stereo not given) | inactive: 2.19%

Row | Structure (SMILES) | growth rescue (activation)
49 | Cc1ccccc1CCN(C(=O)c1csnn1)C(C(=O)NC1CCCC1)c1ccncc1 (stereo not given) | inactive: -23.9%
50 | O=S(=O)(Nc1nccs1)c1cnc(Cl)c(Br)c1 | inactive: 19.1%
51 | COC(=O)c1ccc(C(NC(=O)c2cccnc2)NC(=O)c2cccnc2)cc1 | inactive: -1.07%
52 | Cc1cnc(C(=O)OCC(=O)NC(C)CCc2ccccc2)cn1 (stereo not given) | inactive: 9.15%
53 | Cc1cc(C(=O)NCCc2ccc(S(N)(=O)=O)cc2)c(C)o1 | inactive: -25.6%
54 | CCOC(=O)c1sc(NC(=O)CCN2CCCCCC2)c(C(=O)OCC)c1C | inactive: -16.5%
55 | CC(=O)c1cccc(NC(=O)N2CCCC2C(=O)Nc2cccc(C)c2)c1 (stereo not given) | inactive: 25.8%
56 | Cc1cc(NC(=O)CSc2nccn2C)no1 | inactive: -17.3%
57 | COc1ccc(C(=O)N2C(=S)NC(=O)/C2=C\c2ccc(C)cc2)cc1 | inactive: 7.65%
58 | CCCCNC(=O)COC(=O)c1ccccc1F | inactive: 20%
59 | N#Cc1c(Nc2ccccc2)c(C=O)c[nH]c1=O | inactive: 6.59%
60 | CCc1nc2c(OCCOc3ccc(F)cc3)cccn2c1N(C)C(=O)c1ccc(OC)cc1 | inactive: 5.42%
61 | CCNC(=O)CSc1nc(-c2ccc(F)cc2)cs1 | inactive: 18.2%
62 | N#CCCN(C(=O)CSc1ccc2c(c1)OCCO2)c1ccc(F)cc1 | inactive: 16.7%
63 | CCn1ncc(CN2CCC(Oc3cc(C(=O)NC4CC4)ccc3OC)CC2)c1C | inactive: 4.47%
64 | COc1ccc(C(=O)COC(=O)c2nn(C)cc2Cl)cc1 | inactive: 2.29%
65 | O=C(Nc1ccccc1)Nc1cccn(Cc2c(F)cccc2Cl)c1=O | inactive: -2.14%
66 | Cc1ccc(NC(=O)NC(C)c2c(-n3cccc3)sc(C)c2C)cc1F (stereo not given) | inactive: 4.29%
67 | O=C(Nc1cccc(C(F)(F)F)c1)c1cccnc1NCCc1ccccc1 | inactive: -87.2%
68 | O=C(Nc1cccc([N+](=O)[O-])c1)c1ccncc1 | inactive: 3.87%
69 | O=C(NCCc1ccccn1)c1cc2ccccc2o1 | inactive: 6.97%
70 | CC1(C)C(=O)N(c2ccccc2)C1c1ccccc1O (stereo not given) | inactive: -6.53%
